Reference: PubChem BioAssay AID504332 (National Center for Advancing Translational Sciences (NCATS), 2011)
The whole screen tested about 350,000 compounds, of which about 31,000 (8.9%) were called active. Inconclusive means that the source gave no clear call. Such entries were picked first, then a sample of the others. Calls follow the shape of the dose curve; as a rule, active = well fitted inhibition curve with a large enough effect; inconclusive = small, poorly fitted or top-dose-only effect; inactive = no such curve, though single readings can be large or run the other way. Potencies of inconclusive entries are doubtful fits and often do not repeat.

target: Histone-lysine N-methyltransferase EHMT2 (Homo sapiens) (UniProt Q96KQ7); assay: qHTS Assay for Inhibitors of Histone Lysine Methyltransferase G9a; details: G9a H3K9 monomethylation, AlphaScreen, 2 h; activity, negative = inhibition: at 59 µM (top of the series) unless noted; also: nearly all actives have a fitted effect of over 75% in size
Summary of the method: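 Using a bead-based AlphaScreen, monomethylated H3K9 product from 2 h room-temperature reactions (G9a 20 nM, peptide 500 nM, SAM 20 uM) was detected with 0.5 ug/mL rabbit anti-H3K9me1 antibody.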
% is scaled to controls: 0 for no effect and ±100 for the full control effect; potency is read from the fitted curve at half-maximal effect; tags tell the direction and shape of the fitted curve.

Sequence of UniProt Q96KQ7 (Q96KQ7 whole entry, looked up): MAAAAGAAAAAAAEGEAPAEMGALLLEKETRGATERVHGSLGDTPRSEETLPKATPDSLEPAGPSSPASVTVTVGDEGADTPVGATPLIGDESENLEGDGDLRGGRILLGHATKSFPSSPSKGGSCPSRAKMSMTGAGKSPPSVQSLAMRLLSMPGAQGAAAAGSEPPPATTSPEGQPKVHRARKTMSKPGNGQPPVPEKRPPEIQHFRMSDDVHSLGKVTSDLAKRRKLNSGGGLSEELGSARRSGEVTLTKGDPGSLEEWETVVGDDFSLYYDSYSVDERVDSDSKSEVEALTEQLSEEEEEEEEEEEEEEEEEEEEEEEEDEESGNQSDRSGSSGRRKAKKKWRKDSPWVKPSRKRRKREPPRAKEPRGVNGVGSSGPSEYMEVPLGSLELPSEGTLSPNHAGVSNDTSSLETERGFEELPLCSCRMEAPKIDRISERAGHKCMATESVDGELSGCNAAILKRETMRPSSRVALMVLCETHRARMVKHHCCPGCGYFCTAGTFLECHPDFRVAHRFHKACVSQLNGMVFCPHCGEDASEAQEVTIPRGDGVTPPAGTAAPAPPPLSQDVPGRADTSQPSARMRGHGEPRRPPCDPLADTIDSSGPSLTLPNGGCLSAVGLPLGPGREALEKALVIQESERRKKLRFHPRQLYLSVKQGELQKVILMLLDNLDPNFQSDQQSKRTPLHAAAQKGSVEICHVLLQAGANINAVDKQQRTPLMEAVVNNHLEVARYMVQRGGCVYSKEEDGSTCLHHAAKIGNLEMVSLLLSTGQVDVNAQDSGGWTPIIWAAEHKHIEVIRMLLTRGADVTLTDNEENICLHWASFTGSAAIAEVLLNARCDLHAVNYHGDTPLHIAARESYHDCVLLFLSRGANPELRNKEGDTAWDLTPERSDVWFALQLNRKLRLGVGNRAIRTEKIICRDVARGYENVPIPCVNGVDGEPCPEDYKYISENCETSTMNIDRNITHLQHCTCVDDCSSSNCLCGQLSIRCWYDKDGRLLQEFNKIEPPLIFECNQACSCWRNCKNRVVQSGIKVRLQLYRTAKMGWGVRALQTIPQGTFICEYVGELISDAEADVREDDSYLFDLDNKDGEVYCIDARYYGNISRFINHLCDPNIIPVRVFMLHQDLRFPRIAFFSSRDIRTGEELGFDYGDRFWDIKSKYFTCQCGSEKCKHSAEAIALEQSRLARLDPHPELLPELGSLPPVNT

SMILES | activity, negative = inhibition | Potency
COc1cccc(COCC(O)CN2CCC(C(N)=O)CC2)c1 (stereo unspecified) | inactive: 0.192% [at 102 µM] | 
C#CCOc1ccc(/C=C2/C(=O)ON=C2C)cc1Cl |  | active: 35.5 µM
CCN1C(=O)[C@H]2[C@@H](c3ccc(-c4ccc(F)cc4)c(OC)c3)N[C@@](C)(C(=O)OC)[C@H]2C1=O |  | inconclusive: 5.62 µM [inhibitor, single point]
O=C(Cc1cccs1)NCc1cccc(CNC(=O)Cc2cccs2)c1 | inactive: 10% [at 102 µM] | 
CCOC(=O)N1CCN(c2c(N3CCN(c4ccccn4)CC3)c(=O)c2=O)CC1 |  | inconclusive: 25.1 µM [inhibitor, partial curve, poor fit]
COc1ccc(Nc2ncc3c(n2)CCN(Cc2cc(Br)cs2)C3)c(OC)c1 | inactive: -36.5% [at 12.7 µM] | 
CCOc1ccccc1NC(=O)Cn1nnc2sc(-c3ccccc3)cc2c1=O | inactive: -0.373% | 
Cc1ccc2nc(SCc3nnc(-c4ccccc4[N+](=O)[O-])o3)c(C#N)cc2c1 |  | inconclusive: 1.78 µM [inhibitor, full curve, poor fit]
O=C1CCN(CCc2ccccc2)CCN1[C@H](CO)Cc1ccccc1 |  | inconclusive: 56.2 µM [inhibitor, partial curve, poor fit]
CCOCCN1CCN(C(=O)CN2CCCC2=O)CC1 |  | active: 7.94 µM
O=C(C[n+]1ccn(-c2ccccc2)c1)c1ccc([N+](=O)[O-])cc1 |  | inconclusive: 89.1 µM [inhibitor, single point]
COc1cccc(NC(C)=[N+](C)CCNS(=O)(=O)c2ccc(Cl)cc2)c1 |  | active: 15.8 µM
CC(Sc1cccc[n+]1[O-])C(=O)Nc1cccc([N+](=O)[O-])c1 (stereo unspecified) |  | inconclusive: 50.1 µM [inhibitor, partial curve, poor fit]
CC(C)c1ccc(S(=O)(=O)NCc2ccc3c(c2)CCN3C(=O)c2ccccc2)cc1 | inactive: 9.6% | 
C/C(=N/NC(=O)c1ccc(Br)o1)c1cccs1 |  | inconclusive: 10 µM [inhibitor, partial curve, poor fit]
COc1ccc(C2=CC(=O)CC(c3ccc(OC)cc3)C2)cc1 (stereo unspecified) | inactive: -2.84% [at 102 µM] | 
NC(N)=N/N=C/c1ccc(OCc2ccc(Cl)cc2Cl)cc1 |  | active: 50.1 µM
COc1ccc(CNCc2cccc(C)c2)cc1 |  | active: 10 µM
CCNCCNC(=O)c1c(O)c2ccccc2n(CC)c1=O |  | active: 11.2 µM
Cc1cc(OCC(=O)OCC(=O)NCC2CCCO2)ccc1Cl (stereo unspecified) | inactive: 13.1% [at 2.33 µM] | 
Cc1cccc(NS(=O)(=O)c2ccc(NC(=O)CN(c3cc([N+](=O)[O-])ccc3C)S(C)(=O)=O)cc2)c1 |  | inconclusive: 79.4 µM [inhibitor, single point]
